The source of these data is article PMC12136788.

The other results are listed elsewhere or left out.

T1: UNK ZnF1-3 (human, UniProt Q9C0B0 31-174)
T1 sequence: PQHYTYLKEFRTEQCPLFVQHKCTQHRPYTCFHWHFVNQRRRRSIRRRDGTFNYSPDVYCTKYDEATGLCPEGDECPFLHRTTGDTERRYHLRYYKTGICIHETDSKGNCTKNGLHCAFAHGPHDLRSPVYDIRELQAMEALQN

B1: chr11:30433043:30433044:-_ENSG00000066382_ENST00000358117|hu_mus|FALSE|FALSE (ssRNA)
RNA: GGGAGUUCUACAGUCCGACGAUCUCACAUUCCAACGGGAUGCUGAGUGCUUUAGGAGCCCUGUGGGUUUGGAAGGUCAAAUAUGAUUGGAGGGUUGGUCGGUUGAAAGCUGACUGUACAGGUUGAGGCAUUGAUGUAGGUGGUCAACAGAGGAUUGAGCAUCA
B2: chr2:78753848:78753849:+_ENSMUSG00000027011_ENSMUST00000028398|mus_hu|FALSE|FALSE (ssRNA)
RNA: GGGAGUUCUACAGUCCGACGAUCGUUAUCUCCUUUAGGCCCAGCACUGCAAUUAGGAGGAGGAUCAAGGGUUAUUUCAGCUAGCUCCUUCUGAAUUCUUUUAGCACUAGUGGAUAACUUAGCAGUGGUUUUGCUAGAGAGUUUCAACAGAGGAUUGAGCAUCA
B3: chr8:124405102:124405103:-_ENSMUSG00000040010_ENSMUST00000045557|mus_hu|FALSE|FALSE (ssRNA)
RNA: GGGAGUUCUACAGUCCGACGAUCUUUCUUUAAAAAUAAAAACCCCACAAAAAAGCCAGAACACCCUACCCAACCCAGCCCAGUGUAACAGGUUAGCCAUUAACACAGAAUAAAGAAGGUCCCAGCCACACACGUCAUUACUCGCAACAGAGGAUUGAGCAUCA
B4: 34498214_34498334_89_5pUTR_ENSMUSG00000028291_ENSMUST00000084299|mouse|control|control (ssRNA)
RNA: GGGAGUUCUACAGUCCGACGAUCUCGAAAUCCAGAGUCCUUUUCAGAGUGGCUCCGCACGCCAUGGUGGCGGGCGGCCGAGGCUCGGCUCGGGCGGGGCCGGGAAGGACGGGGGCAAACGGGCCCUCCGAGGUGCCCGGUGGGCAACAGAGGAUUGAGCAUCA
B5: chr9:96246283:96246284:-_ENSMUSG00000032412_ENSMUST00000034983|mus_mus|FALSE|FALSE (ssRNA)
RNA: GGGAGUUCUACAGUCCGACGAUCCUGGAGCAUGGCCCACAUUGUGAAUGUGAAGAGUGCAGCCAAGAACCCAUAAAAAACUAGGUAGAAGAGCAAGAUCAGACCCCAGCUCUUGGAGGUGCGCCCCAGAAACUCUCCGCUGCUCAACAGAGGAUUGAGCAUCA
B6: chr10:5892124:5892125:-_ENSMUSG00000061759_ENSMUST00000095893|mus_mus|FALSE|FALSE (ssRNA)
RNA: GGGAGUUCUACAGUCCGACGAUCUUCAUUAAAACUACUUGAAAGUUUUGCAUUUAACUUAGAAUAGUGACAGAAGUAUAACUAGCUUAAACCCAAACCAAUGCAGCGGGGCAAACCAUUCCAAGGAAGCCUCGUCUACUGUACCAACAGAGGAUUGAGCAUCA
B7: 71851958_71852819_2353_CDS_ENSG00000119139_ENST00000377245|human|control|control (ssRNA)
RNA: GGGAGUUCUACAGUCCGACGAUCUAAGACCACAGGUCUCUUGAAACCAGCUUCUCGCAGCAAAACCCUCUCAUAAGCUGGGAACUUGGUGCUGACAGACACAACAGCUGUGAGGUCUUCCCGACUUUUCCUCAGGUUCUUCUUCAACAGAGGAUUGAGCAUCA
B8: chr2:155479361:155479362:-_ENSMUSG00000038324_ENSMUST00000041059|mus_mus|motif|central (ssRNA)
RNA: GGGAGUUCUACAGUCCGACGAUCCCACUCCUCCAGUUCUUGAAGGAAGCUGGCUGUGCCCGUUGACUCUGACACUUUCCGGGUUGCCAGUUUGCAAAGCCGUUCCACAAAGCCAGGGAUGCUGAGAAGAGCAGCUUGGUUGAUCAACAGAGGAUUGAGCAUCA
B9: chr7:155493584:155493585:+_ENSG00000184863_ENST00000401878|hu_hu|FALSE|FALSE (ssRNA)
RNA: GGGAGUUCUACAGUCCGACGAUCUGAAAGCUCCAAAGUUUCUGGAAUGUUCCUUCUCUCUCUAGUUACAUCUGAGAGCCUAAUAAUUGUUCCUUCUUUCCUUUCAGUUUUGAAACGUAAUCGUCCAGAUUCUUCAUCAUCUUCCAACAGAGGAUUGAGCAUCA
B10: chr11:100452861:100452862:-_ENSMUSG00000014195_ENSMUST00000014339|mus_hu|FALSE|FALSE (ssRNA)
RNA: GGGAGUUCUACAGUCCGACGAUCCCAUUCGUAGAAUGUCACUAGCCACAGACUGUGCUUCUGGAUAACGACCCAGCAUUGCUAAACAUUCUGCCUUGAGGAUUUUGAAGCGAUGGCAGGCAGGGGCAAAUUCUAGGGCACGGUCAACAGAGGAUUGAGCAUCA
B11: chr1:39494564:39494565:+_ENSG00000168653_ENST00000372967|hu_hu|hu_hu_hu_mus_True|58_58 (ssRNA)
RNA: GGGAGUUCUACAGUCCGACGAUCAUGCAUUCGCCUCAUCGUUUUGUACCGAAGCAAGCACUCUUCGAAGUCAUCGAAUUCUAUCUUGCACUCCUUUUUCGCCCGGGUCCCACCGAUCCCGUGUGCACACUCUAUCCACUCUUUCAACAGAGGAUUGAGCAUCA
B12: chr7:141445308:141445309:+_ENSG00000106028_ENST00000265304|hu_hu|hu_hu_hu_mus_False|68_88 (ssRNA)
RNA: GGGAGUUCUACAGUCCGACGAUCUAUGAUUGUUGUUGCUUGCCGCCUCACAUUAUUUUUAUCCAUGUAUUCACCAUAGUCCACUUUCCCUUCCACAAAUAUACGAGCCCCCUUUUUCACAUACUGAUAUGCCACAUCUCUGAGCAACAGAGGAUUGAGCAUCA
B13: 31086706_31086826_1316_CDS_ENSMUSG00000029168_ENSMUST00000114729|mouse|control|control (ssRNA)
RNA: GGGAGUUCUACAGUCCGACGAUCCAUGAGGUAGGUGGAAGUGUUGGUGUCCAGUCUCAGAGGAGGCACCGUGACAUAGGCGGCUGCAUGCGACCAGUCCUGAUGGUAGUAGUGCAAGCCCGUGAGCGUGGCGUGUGCGUUGGUCAACAGAGGAUUGAGCAUCA
B14: chr16:29649037:29649038:+_ENSMUSG00000038084_ENSMUST00000160597|mus_mus|motif|central (ssRNA)
RNA: GGGAGUUCUACAGUCCGACGAUCCACAGUCUACUUCUCCUGGUGAAGAGCUUCAAUGAAAGCAUCAAGCUUUUCUUGAAUUUCUCGGACUUUCUUGAGAUCUUCUGCCAGCUGAACUCGUUUGCCAGUGAGCAAUUUAACCUUCAACAGAGGAUUGAGCAUCA
B15: chr6:38652254:38652255:-_ENSG00000124767_ENST00000373365|hu_hu|hu_hu_hu_mus_False|68_98 (ssRNA)
RNA: GGGAGUUCUACAGUCCGACGAUCCGAGAACUUCAUAAUGGGAAAAUCAAGCUUCUGCAGGAGGGUCAUUCCAAGAACCCUCGUAUAAAAAUCCAGGGACUUCUUAGGAUCCUUAAUUCUUAGCAUCGUUUGCUGCAGUAGAAACAACAGAGGAUUGAGCAUCA
B16: chrX:71549762:71549763:+_ENSMUSG00000019087_ENSMUST00000019231|mus_mus|mus_mus_mus_hu_False|28_108 (ssRNA)
RNA: GGGAGUUCUACAGUCCGACGAUCAAAGUGUACCACUUCUUAUUGUUAGCACAACAUCACCAGAAAACGAUAACGACAGCCAAGCAGGACAGACAGUUAAGUAGUACUUCCACACCUCCAAACUCAGGGAGCCCUAUAACCUUACAACAGAGGAUUGAGCAUCA
B17: chr1:93451714:93451715:+_ENSMUSG00000026311_ENSMUST00000027538|mus_hu|FALSE|FALSE (ssRNA)
RNA: GGGAGUUCUACAGUCCGACGAUCCAACCUCAGCCCCUACAUGUACAUACCCCAUGGCCCGUUACAUUAAUAUGCAACUGAAAAUCCAGAACAGAGAACUUGGGAAAAACAAUAAUAACUUUAGUAUAAGCCUCUCAGCUGACACAACAGAGGAUUGAGCAUCA
B18: chr2:150438701:150438702:-_ENSG00000168288_ENST00000303319|hu_mus|motif|central (ssRNA)
RNA: GGGAGUUCUACAGUCCGACGAUCAUCAGAACCUGAAGAUCCUGCAGUUGAAAAGGCUCUUGGAUUGAUGACUCUUUUCACGGAAGAACAAAAUCCUGGGAGAUAGGAAACCAGUCUGGCUCUGUUACAGAGCACAUGGGCCAUCAACAGAGGAUUGAGCAUCA
B19: chr6:142724167:142724168:+_ENSMUSG00000030282_ENSMUST00000032419|mus_mus|motif|central (ssRNA)
RNA: GGGAGUUCUACAGUCCGACGAUCCCAGACUCAUUGCUUUACAAUAAAUAAAAUCCCAGCAUCAUUAACACCACACACACGGGUUUGACAGGGCACAAUACAGAGUGGAUUGUUUAUGAGGUCGGAGCAAGACUAGGUCAAUCCCAACAGAGGAUUGAGCAUCA
B20: chr1:220379288:220379289:-_ENSG00000118873_ENST00000358951|hu_hu|motif|central (ssRNA)
RNA: GGGAGUUCUACAGUCCGACGAUCUGAUGCUGCAGCUUUUGCUACCUGAUUUCGACAAGCACGAAGAGAUUGAAAAAGGCGGAAUCCAUCAAUAGUCACAAUGGCAGCUGGAUAUAAGAUACUCAACUCUUCAUUCUGCUCAGUCAACAGAGGAUUGAGCAUCA
B21: chr3:10015032:10015033:+_ENSMUSG00000027533_ENSMUST00000029046|mus_mus|mus_mus_mus_hu_True|1_78 (ssRNA)
RNA: GGGAGUUCUACAGUCCGACGAUCGUUUUUACCAUCACAAGUGAUGAUACAAUCUGGCUUGGCCAUGGCGCCCAUUUUUCGCAAAGCUAUUCCCACUCCUAGCUCCUUCAUGUAUUCAUCAAAGCCUUUGCUGUCCAUCAGGCGCAACAGAGGAUUGAGCAUCA
B22: chr6:114281168:114281169:-_ENSG00000196591_ENST00000368632|hu_hu|hu_hu_hu_mus_True|88_108 (ssRNA)
RNA: GGGAGUUCUACAGUCCGACGAUCUUCCAUUUUUCUGUAUAAACCAUAAUUUAACAGCAAGUUAUGAGUCAUCCGGAUUCUAUGAGGCUUCAUGGGAUGACCCUGGCCAUAAUAAUAAUUGCCAAUAUCACCAUCAUAGUAGUACAACAGAGGAUUGAGCAUCA

The target of the test is T1, UNK ZnF1-3. The test is described as follows: nsRBNS (natural sequence RNA bind-n-seq); RBNS binding buffer (assumed for nsRBNS): 25 mM Tris pH 7.5, 150 mM KCl, 3 mM MgCl2, 0.01% Triton X-100, 500 ug/ml BSA, 20 U/ml SUPERase-In, 4 C; UNK is unkempt and MSI1 is Musashi-1; names of the RNAs are library labels; protein concentration not given here; high values mean tight binding.
In turn, B1 registered a binding signal of 1.43 enrichment R.

For the molecule B2, the binding signal was determined as 0.926 enrichment R.

Molecule B3 returned a binding signal of 1.41 enrichment R.

B4 yielded a binding signal of 0.847 enrichment R.

For B5, the binding signal turned out to be 1.97 enrichment R.

B6 gave a binding signal of 0.789 enrichment R.

In turn, B7 showed a binding signal of 0.873 enrichment R.

B8 came in with a binding signal of 0.82 enrichment R.

On to B9, for which the binding signal amounted to 0.627 enrichment R.

Consider B10, for which the binding signal was 0.999 enrichment R.

With B11, the binding signal amounted to 0.603 enrichment R.

B12 had a binding signal of 0.773 enrichment R.

Regarding B13, the binding signal amounted to 1.31 enrichment R.

B14 gave a binding signal of 0.708 enrichment R.

On to B15, for which the binding signal worked out at 0.858 enrichment R.

For the molecule B16, the binding signal was found to be 1.47 enrichment R.

With B17, the binding signal was 2.07 enrichment R.

The molecule B18 returned a binding signal of 1.12 enrichment R.

The molecule B19 returned a binding signal of 1.8 enrichment R.

Regarding B20, the binding signal stood at 1.25 enrichment R.

Consider B21, for which the binding signal came to 0.676 enrichment R.

B22: the binding signal is 0.998 enrichment R.
